Laboratory results published in PubChem BioAssay AID2147 (National Center for Advancing Translational Sciences (NCATS), 2009).
“And” between values parts separate entries of the source, which are not always exact repeats. Equal entries are not always repeated. The campaign covered roughly 230,000 compounds. About 3,600 (1.6%) were called active. The inconclusive results got no clear call from the source; some entries with a clear call stand among them for comparison. Calls come from the whole dose curve; as a rule, active = well fitted inhibition curve with a large enough effect (not every such curve was filed as active); inconclusive = small, poorly fitted or top-dose-only effect, or another doubt; inactive = no such curve, though single readings can be large or run the other way. A potency beside an inconclusive call is a rough fit, not a confirmed value. More than one record can exist for a structure, and the calls need not agree.

These compounds were tested against Lysine-specific demethylase 4E (Homo sapiens) (UniProt B2RXH2) (assay: qHTS Assay for Inhibitors of Human Jumonji Domain Containing 2E (JMJD2E)). Details: JMJD2E catalytic domain, FDH-coupled NADH fluorescence (FDH is formaldehyde dehydrogenase); series mostly up to 57.1 µM; activity change, negative = inhibition: at the top concentration.
Sequence of UniProt B2RXH2 (B2RXH2 whole entry, looked up, the tested form may be a part): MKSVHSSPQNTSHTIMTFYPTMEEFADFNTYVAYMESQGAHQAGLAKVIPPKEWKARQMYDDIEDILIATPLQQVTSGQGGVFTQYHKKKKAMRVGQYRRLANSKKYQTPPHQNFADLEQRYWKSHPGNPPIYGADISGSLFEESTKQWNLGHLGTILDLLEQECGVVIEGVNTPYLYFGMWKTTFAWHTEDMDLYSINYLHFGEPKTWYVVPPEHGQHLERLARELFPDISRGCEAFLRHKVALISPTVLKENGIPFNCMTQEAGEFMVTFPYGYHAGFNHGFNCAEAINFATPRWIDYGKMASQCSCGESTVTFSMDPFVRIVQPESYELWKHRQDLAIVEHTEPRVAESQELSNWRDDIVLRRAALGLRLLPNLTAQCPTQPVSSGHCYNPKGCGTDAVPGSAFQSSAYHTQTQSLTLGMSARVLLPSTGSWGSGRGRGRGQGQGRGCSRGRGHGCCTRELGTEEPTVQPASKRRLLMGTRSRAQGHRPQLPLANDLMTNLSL
Note: nearly all actives have a fitted effect of over 50% in size.
Potency is the fitted concentration of half-maximal effect; tags give direction and shape of the fitted curve.
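Throughout, for activity change, negative = inhibition: 0% = wells with enzyme and -100% = buffer wells without enzyme.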

Structure (SMILES) | Potency | activity change, negative = inhibition
O=c1[nH]c(=O)n(Cc2ccccc2)c(O)c1C=Nc1ccc(CN2CCOCC2)cc1 | inconclusive: 8.91 µM [inhibitor, single point] | –
O=C1NC(=O)C(=Cc2ccc(SC3CCCCC3)o2)C(=O)N1 | inconclusive: 1.58 µM [inhibitor, full curve] | –
COc1cc2c(cc1OC)C(c1c(O)n(CCc3ccccc3)c(=S)[nH]c1=O)NCC2 (centres undefined) | inconclusive: 35.5 µM [inhibitor, partial curve] | –
COc1ccc(-n2c(-c3ccco3)nc3ccccc3c2=O)cc1 | – | inactive: 7.84%
FC(F)(F)c1ccc2c(c1)N(CCCN1CCN(CCCl)CC1)c1ccccc1S2 | inconclusive: 39.8 µM [inhibitor, single point] | –
Cn1c(=O)oc2cc(NC(=O)CCl)ccc21 | inconclusive: 28.2 µM [inhibitor, single point] | –
O=C(Nc1ccc(Cl)cc1)O/N=C(\c1ccccc1)c1ccccn1 | inconclusive: 39.8 µM [inhibitor, single point] | –
CC(N)c1cccc(Cl)c1Cl (centres undefined) | – | inactive: 7.29%
O=C1NC(=O)C(=Cc2ccc(OCC(=O)N3CCOCC3)cc2)C(=O)N1 | inconclusive: 39.8 µM [inhibitor, single point] | –
CC[N+](CC)(CC#CCO)CC#Cc1ccccc1 | inconclusive: 11.2 µM [inhibitor, partial curve] | –
O=C1NC(=O)N(c2ccc(F)cc2)C(=O)/C1=C/c1ccc(N2CCOCC2)cc1 | inconclusive: 22.4 µM [inhibitor, single point] | –
COc1cc2c(c(OC)c1OC)-c1ccc(O)c(=O)cc1[C@H](N)CC2 | active: 7.94 µM | –
CCOC(=O)C1(CCOc2ccccc2)CCN(Cc2cnc(SC)nc2)CC1 | inconclusive: 35.5 µM [inhibitor, single point] | –
C=CCc1c(C)nc(C)nc1N/N=C/c1ccc(N(C)C)cc1 | inconclusive: 31.6 µM [inhibitor, partial curve] | –
CC1CCCCN1Cc1cccnc1 (centres undefined) | active: 20 µM | –
O=C1NC(=O)C(=Cc2cc3c(cc2[N+](=O)[O-])OCO3)C(=O)N1 | inconclusive: 15.8 µM [inhibitor, partial curve] | –
Cc1cc(/C=C2\C(=O)NC(=O)N(Cc3ccccc3)C2=O)c(C)n1C1CC1 | – | inactive: 2.3%
CCC1(C)CC(C(N)=S)CCO1 (centres undefined) | inconclusive: 28.2 µM [inhibitor, single point] | –
O=C(/C=C/c1ccccc1)C1C(=O)c2ccccc2C1=O | inconclusive: 35.5 µM [inhibitor, single point] | –
CCN1CCN(Cc2cc(C(C)(C)C)c(O)c(C(C)(C)C)c2)CC1 | inconclusive: 31.6 µM [inhibitor, single point] | –
COc1ccccc1-n1c(O)c(/C=N/NC(=S)Nc2ccccc2)c(=O)[nH]c1=S | active: 28.2 µM | –
O=C1NC(=O)N(Cc2ccccc2Cl)C(=O)/C1=C/c1cccs1 | – | inactive: -4.55%
C#C[C@@]1(O)CC[C@@H]2[C@@H]3CCC4=CC(=O)CC[C@@]4(C)[C@H]3CC[C@]21C | – | inactive: -1.86% [at 25.5 µM]

Structure (SMILES) | Potency | activity change, negative = inhibition
Cc1onc(-c2c(Cl)cccc2Cl)c1C(=O)Nc1ccc2c(C(F)(F)F)cc(=O)oc2c1 | inconclusive: 20 µM [inhibitor, partial curve] | –
Nc1ccc(CCN2CCN(c3cccc(C(F)(F)F)c3)CC2)cc1 | – | inactive: 1.11%
COc1cccc2c1cc([N+](=O)[O-])c1c(C(=O)O)cc3c(c12)OCO3 | inactive | –
CCOc1ccccc1CN1CCN(S(=O)(=O)CC)CC1 | inconclusive: 39.8 µM [inhibitor, single point] | –
O=C1N=c2ccccc2=C/C1=C\c1c(O)[nH]c(=S)[nH]c1=O | inconclusive: 31.6 µM [inhibitor, single point] | –
COc1ccc(NC2=NC(C)(C)CS2)cc1 | – | inactive: 0.733%
CCCCC/C=C\C/C=C\C/C=C\C/C=C\CCCC(=O)O | active: 25.1 µM and active: 28.2 µM | –
COc1ccc(-n2cnc3cc(C(=O)N4CCC5(CC4)OCCO5)ccc32)cc1 | – | inactive: 28.1%
O=C1NC(=O)N(c2cccc(Br)c2)C(=O)/C1=C/c1ccsc1 | – | inactive: -19.6%
O=C(N/N=C/c1c(O)n(-c2cccc3ccccc23)c(=O)[nH]c1=O)c1ccncc1 | active: 12.6 µM | –
COc1ccc(/C=C/c2cc(O)cc(O)c2)cc1 | inconclusive: 22.4 µM [inhibitor, single point] | –
CC(C)C[C@H]1C(=O)N2CCC[C@H]2[C@]2(O)O[C@](NC(=O)[C@@H]3C=C4c5cccc6[nH]c(Br)c(c56)CC4N(C)C3)(C(C)C)C(=O)N12 (some centres undefined) | inconclusive: 15.8 µM [inhibitor, partial curve] | –
O=c1ccc2[nH]cc(C3=CCNCC3)c2[nH]1 | inconclusive: 31.6 µM [inhibitor, partial curve] | –
CCC(C)N1C(=O)/C(=C\c2cc3c4c(c2)CCCN4CCC3)C(=O)NC1=S (centres undefined) | inconclusive: 28.2 µM [inhibitor, single point] | –
CN1CCc2nc(N)c(C#N)c(-c3ccccc3)c2C1 | inconclusive: 25.1 µM [inhibitor, partial curve] | –
Cc1ccc(-c2nn(C)c(=O)c3ccccc23)cc1CNC(=O)/C=C/c1ccccc1 | inconclusive: 39.8 µM [inhibitor, single point] | –
CC(C)CCNC(=O)CN1C(=O)CN=C(c2ccccc2)c2ccccc21 | – | inactive: -13.4%
CC(=O)[O][Hg][c]1ccccc1 | active: 2.24 µM | –
C=CCN1C(=O)/C(=C/c2cccs2)C(=O)NC1=S | – | inactive: -4.39%
O=c1[nH]c(=S)n(-c2ccc(Cl)cc2)c(O)c1C=Nc1ccc(N2CCOCC2)cc1 | – | inactive: 3.51%
COc1ccc(C(=O)C2CCCN(C3CSCCSC3)C2)c(C)c1 (centres undefined) | – | inactive: -21.8%
CON(C)C(=O)Nc1ccc(Cl)cc1 | – | inactive: 6.54%
CCC(CO)NC(=O)[C@@H]1C=C2c3cccc4[nH]cc(c34)C[C@H]2N(C)C1 (some centres undefined) | inconclusive: 28.2 µM [inhibitor, partial curve] | –

Structure (SMILES) | Potency | activity change, negative = inhibition
CCCOc1ccc(N2C(=O)CC(N3CC=C(c4ccccc4)CC3)C2=O)cc1 (centres undefined) | – | inactive: -9.24%
CC(C)=CCCC(C)CN(C)CCc1ccccn1 (centres undefined) | inconclusive: 39.8 µM [inhibitor, single point] | –
N/C(=N\N=C/c1ccc(-c2ccc(O)c(C(=O)O)c2)o1)N[N+](=O)[O-] | inconclusive: 28.2 µM [inhibitor, single point] | –
Nc1ccc([As](=O)(O)O)cc1 | active: 12.6 µM | –
Cc1ccc(-n2nc(C)c3c2NC(=O)CSC3c2ccc3c(c2)OCO3)cc1 (centres undefined) | inconclusive: 39.8 µM [inhibitor, single point] | –
O=[N+]([O-])c1cccc(CN2CCN(Cc3ccc(Br)cc3)CC2)c1 | active: 25.1 µM | –
c1ccc2c(CCNCc3ccc4c(c3)OCO4)c[nH]c2c1 | – | inactive: -2.19%
CC(C)CNC(=O)c1c(N)n(Cc2ccco2)c2nc3ccccc3nc12 | inconclusive: 28.2 µM [inhibitor, partial curve] | –
CCn1c(N)c(C(=O)NC)sc1=S | inconclusive: 20 µM [inhibitor, single point] | –
Oc1ccc2c3c1O[C@H]1c4oc5ccccc5c4C[C@]4(O)[C@H](C2)N(CC2CC2)CC[C@@]314 | – | inactive: -7.81%
CCCCc1nc(N2CCNCC2)c(C#N)c2c1CSC(C)(C)C2 | inconclusive: 35.5 µM [inhibitor, single point] | –
CC(C)Sc1nnc([C@@H](N)Cc2c[nH]c3ccccc23)o1 | inconclusive: 8.91 µM [inhibitor, single point] | –
CN1CCN(c2ccc(C(N)=O)cc2N)CC1 | inconclusive: 28.2 µM [inhibitor, partial curve] | –
COC(=O)CSC1=NP(=S)(SCC(=O)OC)N2CCCC2=C1C#N (centres undefined) | inconclusive: 1 µM [inhibitor, partial curve] | –
COc1cc2occc2c2oc(=O)ccc12 | inconclusive: 39.8 µM [inhibitor, single point] | –
CC[C@H](CO)NC(=O)[C@H]1C=C2c3cccc4[nH]cc(c34)C[C@@H]2N(C)C1 | inconclusive: 12.6 µM [inhibitor, partial curve] | –
CCOC(=O)c1c(-n2c(C)cc(C=C3C(=O)NC(=O)NC3=O)c2C)sc2c1CCCC2 | – | inactive: -7.25%
Nc1ccc2c3c(cccc13)CC2 | inconclusive: 3.16 µM [inhibitor, full curve] | –
COc1ccccc1Cn1c(SCC(=O)C(C)(C)C)nc2cc(C(=O)N3CCC4(CC3)OCCO4)ccc2c1=O | inconclusive: 39.8 µM [inhibitor, single point] | –
O=c1oc2ccccc2c(O)c1C(c1ccc([N+](=O)[O-])cc1)c1c(O)c2ccccc2oc1=O | inconclusive: 39.8 µM [inhibitor, single point] | –
Cc1ccc(/C=C2\C(=O)NC(=O)N(CC3CCCO3)C2=O)s1 (centres undefined) | inconclusive: 28.2 µM [inhibitor, single point] | –
CC(=O)[C@@H]1CC[C@@H]2[C@@H]3CCC4=CC(=O)CC[C@@]4(C)[C@H]3CC[C@]21C | – | inactive: 1.12% [at 25.5 µM]
CCOC(=O)[C@@]1(C#N)C(c2ccc(Cl)c(Cl)c2)[C@H](C(N)=O)N2C=C(C(C)=O)C=C[C@H]21 (some centres undefined) | inconclusive: 39.8 µM [inhibitor, single point] | –

Structure (SMILES) | Potency | activity change, negative = inhibition
CCOC(=O)c1sc(/N=C/c2c(O)n(-c3ccccc3)c(=O)[nH]c2=O)c(C#N)c1C | – | inactive: -16.7%
Cc1cc(OC(=O)c2ccco2)c2c3c(c(=O)oc2c1)CCC3 | inconclusive: 25.1 µM [inhibitor, single point] | –
c1ccc2c(c1)[nH]c1cnccc12 | inconclusive: 31.6 µM [inhibitor, partial curve] and inconclusive: 28.2 µM [inhibitor, partial curve] | –
O=S1(=O)N(CCN2CC=C(c3c[nH]c4cc(F)ccc34)CC2)c2cccc3c2N1CCC3 | active: 15.8 µM | –
N#CC(C#N)=Cc1ccc([N+](=O)[O-])c(O)c1 | inconclusive: 28.2 µM [inhibitor, single point] | –
CN1[C@H]2CC(=O)C[C@@H]1[C@@H](O)C2 | – | inactive: -3.21% [at 25.5 µM]
NC(=NCCCC(N)C(=O)O)N[N+](=O)[O-] (centres undefined) | – | inactive: 0.467%
O=C1NC(=O)N(c2ccc(F)cc2)C(=O)/C1=C/c1ccc2c(c1)CCCN2Cc1ccccc1 | inconclusive: 22.4 µM [inhibitor, single point] | –
c1ccc(C2N3CCCN23)cc1 (centres undefined) | – | inactive: 5.18%
Nc1c(C(=O)NCc2ccco2)c2nc3ccccc3nc2n1Cc1ccccc1 | inconclusive: 25.1 µM [inhibitor, partial curve] | –
CN1CCN(c2ccc3ccccc3n2)CC1 | inconclusive: 25.1 µM [inhibitor, partial curve] | –
CCN(CC)C(=O)c1ccc2c(c1)C1C(Cl)C(Sc3ccccc3[N+](=O)[O-])CC1C(C(=O)O)N2 (centres undefined) | inconclusive: 31.6 µM [inhibitor, single point] | –
COc1cccc(C(=O)N2CCC3(CC2)OCCO3)c1 | – | inactive: 3.98%
COC1=C[C@]23CCCN2CCc2cc4c(cc2[C@@H]3[C@@H]1O)OCO4 | – | inactive: -14.3%
CCOc1cccc(OCCOCCN2CCCC2)c1 | inconclusive: 39.8 µM [inhibitor, single point] | –
COCCOC(=O)c1c(C)n(C)c2ccc(OC(=O)N3CCOCC3)cc12 | inconclusive: 39.8 µM [inhibitor, single point] | –
Cc1cc(C)c(-n2c(O)c(/C=N/NC(=O)c3ccncc3)c(=O)[nH]c2=O)c(C)c1 | active: 14.1 µM | –
CCN1CCN(c2ccc(N)cc2)CC1 | inconclusive: 35.5 µM [inhibitor, single point] | –
O=C(CN1CC=C(c2ccccc2)CC1)NC(=O)NCc1ccco1 | inconclusive: 25.1 µM [inhibitor, partial curve] | –
COCc1c(CN)cnc(C)c1N | inconclusive: 28.2 µM [inhibitor, single point] | –
